# Out of some 190,000 compounds screened, about 520 (0.27%) were called active. The shares of active, inactive and inconclusive entries below differ from those in the screen.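 The calls were made as follows: active = GTP binding activity at least 20 points away from the 100% control level, either lower or higher; inconclusive = compound flagged as likely green fluorescent, judged across all proteins; inactive = the rest.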
# Target: Ras-related C3 botulinum toxin substrate 1 (Homo sapiens) (UniProt P63000)
# Assay: wildtype Rac1 GTP binding modulators, primary screen, biochemical, GST-Rac1 beads, flow cytometry, multiplex (AID 757)
# Settings: fluorescent GTP binding, at 10 µM, actives lie on both sides, 0 = cold GTP competed, 100 = untreated
row,SMILES,GTP binding activity (% of control)
1,c1cnc(N2CCN(Cc3ccc4c(c3)OCO4)CC2)nc1,inconclusive: 108%
2,C/C(=N/NC(=O)c1ccoc1C)c1ccc(NC(=O)c2ccncc2)cc1,inactive: 104%
3,CNC(=O)c1ccc(Nc2nnc(-c3ccc(C)c(S(=O)(=O)NCC4CCCO4)c3)c3ccccc23)cc1 (stereo unspecified),inconclusive: 101%
4,COC(=O)c1cc2c(C)cc3ccc(C)cn3c-2c1C(=O)OC,inconclusive: 93%
5,N#CCCNc1c(Cl)cc(Cl)cc1C(=O)O,inactive: 99%
6,CCc1ccccc1NC(=O)CSc1nc2n[nH]c(C)c2c(=N)n1-c1cccc(OC)c1,inconclusive: 87%
7,CCCCN(C)CCNC(=O)CCNC(=O)Cn1ccc2ccccc2c1=O,inactive: 100%
8,N#Cc1ccc2ccn(CC(=O)N3CCCc4ccccc43)c2c1,active: 129% [activator]
9,O=C(O)CC(NC(=O)C1CCCCC1)c1ccc(OC2CCCC2)cc1 (stereo unspecified),inconclusive: 95%
10,CC1CCCN(c2ccc3nc4ccccc4c(=O)n3n2)C1 (stereo unspecified),active: 78%
11,Cc1ccc[n+](CC(=O)Nc2cc(C(F)(F)F)ccc2N2CCOCC2)c1,inconclusive: 93%
12,CN(Cc1ccccc1)c1ccc(N2C(=O)CCCC2=O)cc1[N+](=O)[O-],inactive: 99%
13,Cn1nc([N+](=O)[O-])c(C(C#N)c2ccccn2)c(Cl)c1=O (stereo unspecified),inactive: 84%
14,Nc1ccc(C2CCCc3nonc32)c2nonc12 (stereo unspecified),inconclusive: 92%
15,O=C(NC(Cc1c[nH]c2ccccc12)C(=O)O)c1ccc(Br)cc1 (stereo unspecified),inactive: 91%
16,CCOC(=O)c1cnc2cc3c(cn2c1=O)CCCC3,inconclusive: 103%
17,Nc1c(S(=O)(=O)c2ccccc2)c2nc3ccccc3nc2n1/N=C/c1cccc(O)c1,inactive: 88%
18,COC(=O)c1c(NC(=O)c2ccoc2C)sc2c1CCC2,inconclusive: 99%
19,CCOc1ccccc1NC(=O)CSc1ccc([N+](=O)[O-])cc1,inactive: 97%
20,COc1ccc(OC)c(/C=N/NC(=O)c2cc[n+](CC(=O)c3ccccc3)cc2)c1,inconclusive: 105%
21,O=C(O)c1cccc(Oc2ccc([N+](=O)[O-])cc2)c1,active: 141% [activator]
22,Fc1ccc(-c2csc3ncnc(Cl)c23)cc1,inconclusive: 100%
23,Cc1ccc(C2=NN(S(=O)(=O)c3ccccc3)C(c3ccccc3O)C2)cc1 (stereo unspecified),inconclusive: 119%
24,O=C(Cn1cnc2cc([N+](=O)[O-])ccc2c1=O)NCCc1ccc(F)cc1,inconclusive: 82%
25,OCCNCCOc1ccc(Cl)c(Cl)c1,inconclusive: 107%
26,O=C(Nc1cccnc1)c1ccc(CN2CCc3ccccc3C2)cc1,inconclusive: 104%

# — PubChem BioAssay AID757 (NMMLSC, 2007)
